# Reference: the supplement of paper PMC8728848
# The list shows a part of the results.
# B1: FedF (Escherichia coli), Q47212 (protein)
# chain: MRLKYILIIPLLLISLSVFASTLQVDKSVSYDWINSSASSAQVTGTLLGTGKTNTTQMPALYTWQHQIYNVNFIPSSSGTLTCQAGTILVWKNGRETQYALECRVSIHHSSGSINESQWGQQSQVGFGTACGNKKCRFTGFEISLRIPPNAQTYPLSSGDLKGSFSLTNKEVNWSASIYVPAIAKSYRLDTSITLPDTVNLKQNQATPVYYTFSAPSVSNTITGIPNQNDMPSSNVKLTIGPIQSKTTALYVQPDATGSWYDLSKSITMTVVKSSMLNFKGINAKPGNVTLSVPIVFEIQ
# How the values were obtained:
# Experiment in all cases: glycan array binding signal (z-score within array); higher = stronger binding
# Conditions in all cases: glycan notation: IUPAC condensed, linker removed
# [1] = biological target: GlcNAc(a1-4)Gal(b1-4)GlcNAc
# Outline: (§1)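 The Consortium for Functional Glycomics database supplied 3228 glycan arrays, of which those lacking an available protein sequence were dropped. The binding signal, a within-array Z-score, was averaged across arrays of the same protein sequence and across linkers. Negative scores can be read as non-binding.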
# [2] = biological target: GlcNAc(a1-4)Gal(b1-4)GlcNAc(b1-3)Gal(b1-4)Glc
# Outline: as §1
# [3] = biological target: GlcNAc(a1-4)Gal(b1-4)GlcNAc(b1-3)Gal(b1-4)GlcNAc
# Outline: as §1
# [4] = biological target: GlcNAc(a1-4)Gal(b1-4)GlcNAc(b1-3)Gal(b1-4)GlcNAc(b1-3)Gal(b1-4)GlcNAc
# Outline: as §1
# [5] = biological target: GlcNAc(a1-4)Gal(b1-4)GlcNAc(b1-3)Gal(b1-4)[Fuc(a1-3)]GlcNAc(b1-3)Gal(b1-4)[Fuc(a1-3)]GlcNAc
# Outline: as §1
# [6] = biological target: GlcNAc(a1-6)Gal(b1-4)GlcNAc
# Outline: as §1
# [7] = biological target: GlcNAc(b1-2)Gal(b1-3)GalNAc
# Outline: as §1
# [8] = biological target: GlcNAc(b1-2)Man(a1-3)[GlcNAc(b1-2)Man(a1-6)]Man(b1-4)GlcNAc(b1-4)GlcNAc
# Outline: as §1
# [9] = biological target: GlcNAc(b1-2)Man(a1-3)[GlcNAc(b1-2)Man(a1-6)]Man(b1-4)GlcNAc(b1-4)[Fuc(a1-6)]GlcNAc
# Outline: as §1
# [10] = biological target: GlcNAc(b1-2)Man(a1-3)[GlcNAc(b1-4)][GlcNAc(b1-2)Man(a1-6)]Man(b1-4)GlcNAc(b1-4)GlcNAc
# Outline: as §1
# [11] = biological target: GlcNAc(b1-2)[GlcNAc(b1-4)]Man(a1-3)[GlcNAc(b1-2)Man(a1-6)]Man(b1-4)GlcNAc(b1-4)GlcNAc
# Outline: as §1
# [12] = biological target: GlcNAc(b1-2)[GlcNAc(b1-4)]Man(a1-3)[GlcNAc(b1-4)][GlcNAc(b1-2)Man(a1-6)]Man(b1-4)GlcNAc(b1-4)GlcNAc
# Outline: as §1
# [13] = biological target: GlcNAc(b1-2)[GlcNAc(b1-4)]Man(a1-3)[GlcNAc(b1-4)][GlcNAc(b1-2)[GlcNAc(b1-6)]Man(a1-6)]Man(b1-4)GlcNAc(b1-4)GlcNAc
# Outline: as §1
# [14] = biological target: GlcNAc(b1-2)[GlcNAc(b1-6)]Man(a1-6)[GlcNAc(b1-2)Man(a1-3)]Man(b1-4)GlcNAc(b1-4)GlcNAc
# Outline: as §1
# [15] = biological target: GlcNAc(b1-2)[GlcNAc(b1-6)]Man(a1-6)[GlcNAc(b1-2)Man(a1-3)][GlcNAc(b1-4)]Man(b1-4)GlcNAc(b1-4)GlcNAc
# Outline: as §1
# GlcNAc(b1-3)Gal = biological target: GlcNAc(b1-3)Gal
# Outline: as §1
# [16] = biological target: GlcNAc(b1-3)Gal(b1-3)GalNAc
# Outline: as §1
# GlcNAc(b1-3)Gal(b1-4)Glc = biological target: GlcNAc(b1-3)Gal(b1-4)Glc
# Outline: as §1
# [17] = biological target: GlcNAc(b1-3)Gal(b1-4)GlcNAc
# Outline: as §1
# [18] = biological target: GlcNAc(b1-3)Gal(b1-4)GlcNAc(b1-3)Gal(b1-4)GlcNAc
# Outline: as §1
# GlcNAc(b1-3)GalNAc = biological target: GlcNAc(b1-3)GalNAc
# Outline: as §1
# GlcNAc(b1-3)Man = biological target: GlcNAc(b1-3)Man
# Outline: as §1
# [19] = biological target: GlcNAc(b1-3)[GlcNAc(b1-4)][GlcNAc(b1-6)]GlcNAc
# Outline: as §1
# [20] = biological target: GlcNAc(b1-3)[GlcNAc(b1-6)]Gal(b1-4)GlcNAc
# Outline: as §1
# [21] = biological target: GlcNAc(b1-3)[GlcNAc(b1-6)]GalNAc
# Outline: as §1
# [22] = biological target: GlcNAc(b1-3)[GlcNAc(b1-6)]GlcNAc(b1-4)GlcNAc
# Outline: as §1
# [23] = biological target: GlcNAc(b1-4)Gal(b1-4)GlcNAc
# Outline: as §1
# GlcNAc(b1-4)GlcNAc = biological target: GlcNAc(b1-4)GlcNAc
# Outline: as §1
# [24] = biological target: GlcNAc(b1-4)GlcNAc(b1-4)GlcNAc
# Outline: as §1
# [25] = biological target: GlcNAc(b1-4)GlcNAc(b1-4)GlcNAc(b1-4)GlcNAc(b1-4)GlcNAc
# Outline: as §1
# [26] = biological target: GlcNAc(b1-4)GlcNAc(b1-4)GlcNAc(b1-4)GlcNAc(b1-4)GlcNAc(b1-4)GlcNAc
# Outline: as §1
# [27] = biological target: GlcNAc(b1-4)[GlcNAc(b1-6)]GalNAc
# Outline: as §1
# [28] = biological target: GlcNAc(b1-6)Gal(b1-4)GlcNAc
# Outline: as §1
# GlcNAc(b1-6)GalNAc = biological target: GlcNAc(b1-6)GalNAc
# Outline: as §1
# GlcNAc3Prop(b1-4)GlcNAc = biological target: GlcNAc3Prop(b1-4)GlcNAc
# Outline: as §1
# [29] = biological target: GlcNAc6S(b1-3)Gal(b1-4)GlcNAc
# Outline: as §1
# Kdn(a2-3)Gal(b1-3)GalNAc = biological target: Kdn(a2-3)Gal(b1-3)GalNAc
# Outline: as §1
binder,measurement,setting,value
B1,glycan array binding signal (z-score),[1],-0.066
same,glycan array binding signal (z-score),[2],-0.16
same,glycan array binding signal (z-score),[3],0.918
same,glycan array binding signal (z-score),[4],-0.191
same,glycan array binding signal (z-score),[5],0.479
same,glycan array binding signal (z-score),[6],-0.46
same,glycan array binding signal (z-score),[7],-0.017
same,glycan array binding signal (z-score),[8],-0.02
same,glycan array binding signal (z-score),[9],1.99
same,glycan array binding signal (z-score),[10],-0.135
same,glycan array binding signal (z-score),[11],-0.189
same,glycan array binding signal (z-score),[12],-0.171
same,glycan array binding signal (z-score),[13],-0.182
same,glycan array binding signal (z-score),[14],-0.184
same,glycan array binding signal (z-score),[15],-0.132
same,glycan array binding signal (z-score),GlcNAc(b1-3)Gal,-0.29
same,glycan array binding signal (z-score),[16],-0.213
same,glycan array binding signal (z-score),GlcNAc(b1-3)Gal(b1-4)Glc,-0.285
same,glycan array binding signal (z-score),[17],-0.179
same,glycan array binding signal (z-score),[18],-0.337
same,glycan array binding signal (z-score),GlcNAc(b1-3)GalNAc,-0.119
same,glycan array binding signal (z-score),GlcNAc(b1-3)Man,-0.107
same,glycan array binding signal (z-score),[19],-0.183
same,glycan array binding signal (z-score),[20],-0.249
same,glycan array binding signal (z-score),[21],-0.248
same,glycan array binding signal (z-score),[22],-0.224
same,glycan array binding signal (z-score),[23],-0.168
same,glycan array binding signal (z-score),GlcNAc(b1-4)GlcNAc,-0.187
same,glycan array binding signal (z-score),[24],0.222
same,glycan array binding signal (z-score),[25],-0.269
same,glycan array binding signal (z-score),[26],-0.156
same,glycan array binding signal (z-score),[27],-0.491
same,glycan array binding signal (z-score),[28],-0.396
same,glycan array binding signal (z-score),GlcNAc(b1-6)GalNAc,-0.288
same,glycan array binding signal (z-score),GlcNAc3Prop(b1-4)GlcNAc,13.7
same,glycan array binding signal (z-score),[29],-0.117
same,glycan array binding signal (z-score),Kdn(a2-3)Gal(b1-3)GalNAc,-0.089
